From the supplement of paper PMC3334620
Whole data set: some 33,000 sequences, median “E-score (-0.5 to 0.5)” near -0.012, cut for the highest 2% near 0.29. The list shows a part of the results.

The sequences below were run against T1, Ybr033w (UniProt P38073) (assay: PBM E-score (8-mer binding enrichment) (E-score (-0.5 to 0.5)); higher = stronger / more preferred TF binding; most listed sequences are background and not binding sites). Conditions: protein concentration: 200 nM; construct: GST-full length.
T1 sequence: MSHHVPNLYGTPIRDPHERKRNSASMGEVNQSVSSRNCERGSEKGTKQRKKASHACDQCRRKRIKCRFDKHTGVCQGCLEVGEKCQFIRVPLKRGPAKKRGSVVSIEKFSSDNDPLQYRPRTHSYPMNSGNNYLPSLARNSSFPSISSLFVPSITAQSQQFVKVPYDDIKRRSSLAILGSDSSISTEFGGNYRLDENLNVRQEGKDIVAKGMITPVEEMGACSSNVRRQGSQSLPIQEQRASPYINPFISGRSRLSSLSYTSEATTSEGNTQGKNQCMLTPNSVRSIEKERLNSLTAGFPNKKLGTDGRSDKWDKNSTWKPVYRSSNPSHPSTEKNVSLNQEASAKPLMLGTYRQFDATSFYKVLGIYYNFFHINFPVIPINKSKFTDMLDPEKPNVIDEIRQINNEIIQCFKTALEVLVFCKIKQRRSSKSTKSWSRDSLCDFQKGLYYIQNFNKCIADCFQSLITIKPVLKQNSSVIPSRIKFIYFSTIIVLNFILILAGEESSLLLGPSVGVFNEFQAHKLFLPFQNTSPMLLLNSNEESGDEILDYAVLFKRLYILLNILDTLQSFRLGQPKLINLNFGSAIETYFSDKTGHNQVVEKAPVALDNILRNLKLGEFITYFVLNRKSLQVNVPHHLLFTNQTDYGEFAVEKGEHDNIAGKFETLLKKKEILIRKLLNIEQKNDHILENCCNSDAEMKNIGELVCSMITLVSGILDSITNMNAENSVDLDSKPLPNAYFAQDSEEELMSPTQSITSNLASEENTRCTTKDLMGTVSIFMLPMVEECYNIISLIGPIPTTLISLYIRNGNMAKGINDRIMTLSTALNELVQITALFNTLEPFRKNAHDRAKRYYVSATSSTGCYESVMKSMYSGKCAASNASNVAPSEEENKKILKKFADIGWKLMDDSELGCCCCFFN
How it was run: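 Universal all-10-mer Agilent arrays, double-stranded by primer extension on fresh or once-stripped slides, were probed with about 100-200 nM GST-tagged yeast transcription factors made by PURExpress. Fluorescent anti-GST detected bound protein, and masliner normalised the scans. E-scores from the Universal PBM Analysis Suite were given to each ungapped eight-base word pooled with its reverse complement.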

Sequence	PBM E-score
AGATTGCA	0.0779
GCGACACA	-0.213
ATCGTAGG	0.0186
CACCAGTC	-0.196
TACTCGAA	0.0219
AAAGCATC	0.0259
AAGTAAGG	0.129
AGTTCCCC	-0.193
AATCGACC	0.0467
ATGGGGAA	0.0504
GTGATCAC	-0.181
AGTGAAGC	-0.0225
AAGGGGGC	-0.386
AAATCTGG	0.219
AGCTGAAC	-0.327
GGTAAACA	0.216
AACGGTAT	-0.116
CGCACAGC	-0.121
CGCGGATC	-0.163
AATGGGTA	0.218
GCCCCTCC	-0.264
AGGACTTA	-0.174
CCCAGTAC	-0.0948
CCTGCATA	-0.141
CGTTAAAA	-0.0301

Sequence	PBM E-score
CGGGTAAG	-0.127
ACTATCCC	-0.24
GGAACACA	0.149
ACCCCCGG	-0.222
AAGAGCGC	0.0652
CACTGCCC	-0.169
AGGCGGCG	-0.224
CGGCCGTC	-0.245
CATCCGAA	0.127
AAAGCGGA	-0.142
GCCGTATA	0.0638
CATGGAGC	-0.121
GCACCTCC	-0.186
CTTGGAGC	-0.0473
ATTGTCAC	0.0585
GCCCAATA	-0.13
AGAGACCG	-0.246
CCTAACCA	0.0244
TCACCAGA	-0.204
GGGTAGCA	-0.0817
GGTCGTTA	0.024
CCCCGCTA	0.0134
ATGTTGCA	0.101
AAAGGTCA	-0.0607
GTGCCACA	-0.302

Sequence	PBM E-score
AGCGACGA	-0.0902
TACCATAA	0.209
GGGACGAC	-0.088
TACAATAA	0.191
GGCGCACA	-0.138
GACGAGAA	0.0391
AGAAAAGC	0.108
TAATATCA	0.319
CGTAAAGC	-0.132
ATCTTACA	0.0443
CTCATCCA	-0.0476
TTGGGAAA	0.294
CCCGGTAG	-0.137
ACCGAGCC	-0.0337
CCAATCGG	-0.0308
TACTAGGA	0.114
AGGACACT	-0.245
CCAAGAAG	-0.00972
CCGCATAA	0.273
CTTTCGTC	-0.0306
AAATCTTA	0.133
ACTATTCG	0.177
CTGACATA	-0.0988
CGGCACTA	-0.103
AGATGCGC	-0.0924

Sequence	PBM E-score
GATTGCAA	0.171
ACAGTAGC	-0.0291
AGAGGTCC	-0.0215
CTGAGAGC	-0.319
ACTATAAC	-0.00798
CGAACTAC	0.00541
ACGTAGAC	-0.243
GCCGACGA	-0.112
CGATTCGC	-0.00036
AAGTGTTG	0.243
AACCAATA	0.244
CCCCTCCG	-0.245
TACAGTCA	0.0593
AACGAACC	0.186
CCAGTTGC	-0.152
TGCCCCCA	-0.265
TGAGAGCA	-0.149
ACAGCGAA	0.0602
ATCATTAA	0.313
CGTGGCTA	-0.221
CATCAGCA	0.0619
ACCGTTCG	-0.0246
CATTGGGA	-0.0448
AATCAATA	0.334
GATCCATC	-0.146

Sequence	PBM E-score
CGCTCTGA	-0.0956
ACGAAGAC	-0.177
CCCCGGTC	-0.253
ATTTGAAC	0.243
CCCGATTC	-0.00238
AACAAAGT	0.233
ATAAATCC	0.324
ACACTGAC	-0.182
CTTCGTCA	0.124
CGATACAC	0.0422
TACGCCAA	-0.106
AAAGGGCG	-0.0478
CCCGCCAC	-0.0185
CGCCGAGA	-0.153
AATATATG	0.204
ACACGGGC	-0.0889
CGTCAGCA	-0.0493
AGTACTCC	-0.0939
GATCTAAC	0.0567
AACAGTCT	-0.123
AATTTTCT	0.145
CGCCTTTA	0.0429
CAATTATA	0.28
GCTTGTGA	-0.108
CCAGTCTA	-0.172

Sequence	PBM E-score
CGGTAGTA	-0.0551
ACGGGTGC	-0.0113
GCTGCCTA	-0.162
AAATCTAC	0.233
ACCTGTCA	-0.148
CACCTATG	0.0127
CATGTTCC	0.0191
CTGCTCTA	0.0563
ATAGATGG	-0.0391
GCGTGCTA	-0.252
CGGCACGA	-0.0127
ACACCTAG	-0.00194
CAAGAGGC	-0.144
ACTTAACG	-0.104
CACGCTGC	-0.195
CCTTCGAC	-0.134
GATCTCTA	0.0118
AGGTCCAC	-0.291
AAAGCGGT	0.0159
ATGTTCGC	0.00613
AAATCTGT	0.131
CAGTGTTC	0.143
AGCCCAAG	-0.135
CCACTGCG	-0.00412
ATCTCGTC	-0.0606

Sequence	PBM E-score
AAAATAGT	0.225
ACAAGCGA	0.0103
GAGCGGCC	-0.139
CCTGATAC	0.108
CGGAGAAG	-0.166
CTTACGGA	-0.0917
CCCACAAA	0.0286
AAATAGTG	0.292
AACTCTCA	0.121
CTCCTGGC	0.0146
AGTAAGAT	0.138
GACTGGAA	0.0267
CAGTGGGA	-0.0737
CATCAAAC	0.131
GGGTTGGA	-0.0783
ACAGACCT	0.00939
GATCTACA	0.0898
CAAAGGTC	-0.191
AAAATTCA	0.359
ACGGTTGA	0.0715
AGTACCCG	-0.00154
CCAGTCGA	-0.153
